# The other results are listed elsewhere or left out.
# Key:
# Experiment in all cases: glycan array binding signal (z-score within array); higher = stronger binding
# Conditions in all cases: glycan notation: IUPAC condensed, linker removed
# Fuc(a1-2)Gal = target: Fuc(a1-2)Gal
# Outline: (§1)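 Arrays were curated from the Consortium for Functional Glycomics database, 3228 in total, and kept only where the protein sequence was available. Binding is expressed as a within-array Z-score. This score was averaged across arrays of the same protein sequence at different concentrations or buffers and across linkers, and negative values can be read as non-binding.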
# Fuc(a1-2)Gal(b1-3)GalNAc = target: Fuc(a1-2)Gal(b1-3)GalNAc
# Outline: as §1
# [1] = target: Fuc(a1-2)Gal(b1-3)GalNAc(b1-3)Gal
# Outline: as §1
# [2] = target: Fuc(a1-2)Gal(b1-3)GalNAc(b1-3)Gal(a1-4)Gal(b1-4)Glc
# Outline: as §1
# [3] = target: Fuc(a1-2)Gal(b1-3)GalNAc(b1-4)[Neu5Ac(a2-3)]Gal(b1-4)Glc
# Outline: as §1
# Fuc(a1-2)Gal(b1-3)GlcNAc = target: Fuc(a1-2)Gal(b1-3)GlcNAc
# Outline: as §1
# [4] = target: Fuc(a1-2)Gal(b1-3)GlcNAc(b1-3)Gal(b1-4)Glc
# Outline: as §1
# [5] = target: Fuc(a1-2)Gal(b1-3)[Fuc(a1-4)]GlcNAc
# Outline: as §1
# Fuc(a1-2)Gal(b1-4)Glc = target: Fuc(a1-2)Gal(b1-4)Glc
# Outline: as §1
# Fuc(a1-2)Gal(b1-4)Glc6S = target: Fuc(a1-2)Gal(b1-4)Glc6S
# Outline: as §1
# Fuc(a1-2)Gal(b1-4)GlcNAc = target: Fuc(a1-2)Gal(b1-4)GlcNAc
# Outline: as §1
# [6] = target: Fuc(a1-2)Gal(b1-4)GlcNAc(b1-3)Gal(b1-4)GlcNAc
# Outline: as §1
# [7] = target: Fuc(a1-2)Gal(b1-4)GlcNAc(b1-3)Gal(b1-4)GlcNAc(b1-3)Gal(b1-4)GlcNAc
# Outline: as §1
# [8] = target: Fuc(a1-2)Gal(b1-4)GlcNAc6S
# Outline: as §1
# [9] = target: Fuc(a1-2)Gal(b1-4)[Fuc(a1-3)]GlcNAc
# Outline: as §1
# [10] = target: Fuc(a1-2)Gal(b1-4)[Fuc(a1-3)]GlcNAc(b1-3)Gal(b1-4)[Fuc(a1-3)]GlcNAc
# Outline: as §1
# [11] = target: Fuc(a1-2)Gal(b1-4)[Fuc(a1-3)]GlcNAc(b1-3)Gal(b1-4)[Fuc(a1-3)]GlcNAc(b1-3)Gal(b1-4)[Fuc(a1-3)]GlcNAc
# Outline: as §1
# Fuc(a1-2)Gal6S(b1-4)Glc = target: Fuc(a1-2)Gal6S(b1-4)Glc
# Outline: as §1
# [12] = target: Fuc(a1-2)Gal6S(b1-4)Glc6S
# Outline: as §1
# [13] = target: Fuc(a1-2)Gal6S(b1-4)GlcNAc
# Outline: as §1
# Fuc(a1-2)[Gal(a1-3)]Gal = target: Fuc(a1-2)[Gal(a1-3)]Gal
# Outline: as §1
# [14] = target: Fuc(a1-2)[Gal(a1-3)]Gal(b1-3)GlcNAc
# Outline: as §1
# [15] = target: Fuc(a1-2)[Gal(a1-3)]Gal(b1-4)Glc
# Outline: as §1
# [16] = target: Fuc(a1-2)[Gal(a1-3)]Gal(b1-4)GlcNAc
# Outline: as §1
# [17] = target: Fuc(a1-2)[Gal(a1-3)]Gal(b1-4)[Fuc(a1-3)]GlcNAc
# Outline: as §1
# [18] = target: Fuc(a1-2)[Gal(a1-4)]Gal(b1-4)GlcNAc
# Outline: as §1
# [19] = target: Fuc(a1-2)[GalNAc(a1-3)]Gal
# Outline: as §1
# [20] = target: Fuc(a1-2)[GalNAc(a1-3)]Gal(b1-3)GlcNAc
# Outline: as §1
# [21] = target: Fuc(a1-2)[GalNAc(a1-3)]Gal(b1-4)Glc
# Outline: as §1
# [22] = target: Fuc(a1-2)[GalNAc(a1-3)]Gal(b1-4)GlcNAc
# Outline: as §1
# [23] = target: Fuc(a1-2)[GalNAc(a1-3)]Gal(b1-4)[Fuc(a1-3)]GlcNAc
# Outline: as §1
# [24] = target: Fuc(a1-2)[GalNAc(a1-4)]Gal(b1-4)GlcNAc
# Outline: as §1
# [25] = target: Fuc(a1-2)[GalNAc(b1-3)]Gal
# Outline: as §1
# Fuc(a1-3)GlcNAc = target: Fuc(a1-3)GlcNAc
# Outline: as §1
# [26] = target: Fuc(a1-3)[Gal(b1-4)]Glc6S
# Outline: as §1
# [27] = target: Fuc(a1-3)[Gal(b1-4)]GlcNAc
# Outline: as §1
# [28] = target: Fuc(a1-3)[Gal(b1-4)]GlcNAc(b1-2)Man(a1-3)[Fuc(a1-3)[Gal(b1-4)]GlcNAc(b1-2)Man(a1-6)]Man(b1-4)GlcNAc(b1-4)GlcNAc
# Outline: as §1
# [29] = target: Fuc(a1-3)[Gal(b1-4)]GlcNAc(b1-2)Man(a1-6)[Gal(b1-4)GlcNAc(b1-2)Man(a1-3)]Man(b1-4)GlcNAc(b1-4)GlcNAc
# Outline: as §1
# [30] = target: Fuc(a1-3)[Gal(b1-4)]GlcNAc(b1-3)Gal(b1-3)[Fuc(a1-4)]GlcNAc
# Outline: as §1
# [31] = target: Fuc(a1-3)[Gal(b1-4)]GlcNAc(b1-4)Gal(b1-4)[Fuc(a1-3)]GlcNAc
# Outline: as §1
# [32] = target: Fuc(a1-3)[Gal(b1-4)]GlcNAc(b1-4)Gal(b1-4)[Fuc(a1-3)]GlcNAc(b1-4)Gal(b1-4)[Fuc(a1-3)]GlcNAc
# Outline: as §1
# [33] = target: Fuc(a1-3)[Gal(b1-4)]GlcNAc6S
# Outline: as §1
# [34] = target: Fuc(a1-3)[Gal3S(b1-4)]Glc6S
# Outline: as §1
# [35] = target: Fuc(a1-3)[Gal3S(b1-4)]GlcNAc
# Outline: as §1
# [36] = target: Fuc(a1-3)[Gal3S(b1-4)]GlcNAc6S
# Outline: as §1
# [37] = target: Fuc(a1-3)[GalNAc(b1-4)]GlcNAc
# Outline: as §1
# Fuc(a1-4)GlcNAc = target: Fuc(a1-4)GlcNAc
# Outline: as §1
# Fuc(b1-3)GlcNAc = target: Fuc(b1-3)GlcNAc
# Outline: as §1
# Gal(a1-2)Gal = target: Gal(a1-2)Gal
# Outline: as §1
# Gal(a1-3)Gal = target: Gal(a1-3)Gal
# Outline: as §1
# Gal(a1-3)Gal(b1-3)GlcNAc = target: Gal(a1-3)Gal(b1-3)GlcNAc
# Outline: as §1
# Gal(a1-3)Gal(b1-4)Glc = target: Gal(a1-3)Gal(b1-4)Glc
# Outline: as §1
# Gal(a1-3)Gal(b1-4)GlcNAc = target: Gal(a1-3)Gal(b1-4)GlcNAc
# Outline: as §1
# [38] = target: Gal(a1-3)Gal(b1-4)[Fuc(a1-3)]GlcNAc
# Outline: as §1
# Gal(a1-3)GalNAc = target: Gal(a1-3)GalNAc
# Outline: as §1
# [39] = target: Gal(a1-3)[Gal(a1-4)]Gal(b1-4)GlcNAc
# Outline: as §1
# Gal(a1-4)Gal(b1-4)Glc = target: Gal(a1-4)Gal(b1-4)Glc
# Outline: as §1
# Gal(a1-4)Gal(b1-4)GlcNAc = target: Gal(a1-4)Gal(b1-4)GlcNAc
# Outline: as §1
# Gal(a1-4)GlcNAc = target: Gal(a1-4)GlcNAc
# Outline: as §1
# Gal(a1-6)Glc = target: Gal(a1-6)Glc
# Outline: as §1
binder,measurement,setting,value
"Factor H (Homo sapiens), P08603 (protein) MRLLAKIICLMLWAICVAEDCNELPPRRNTEILTGSWSDQTYPEGTQAIYKCRPGYRSLGNVIMVCRKGEWVALNPLRKCQKRPCGHPGDTPFGTFTLTGGNVFEYGVKAVYTCNEGYQLLGEINYRECDTDGWTNDIPICEVVKCLPVTAPENGKIVSSAMEPDREYHFGQAVRFVCNSGYKIEGDEEMHCSDDGFWSKEKPKCVEISCKSPDVINGSPISQKIIYKENERFQYKCNMGYEYSERGDAVCTESGWRPLPSCEEKSCDNPYIPNGDYSPLRIKHRTGDEITYQCRNGFYPATRGNTAKCTSTGWIPAPRCTLKPCDYPDIKHGGLYHENMRRPYFPVAVGKYYSYYCDEHFETPSGSYWDHIHCTQDGWSPAVPCLRKCYFPYLENGYNQNYGRKFVQGKSIDVACHPGYALPKAQTTVTCMENGWSPTPRCIRVKTCSKSSIDIENGFISESQYTYALKEKAKYQCKLGYVTADGETSGSITCGKDGWSAQPTCIKSCDIPVFMNARTKNDFTWFKLNDTLDYECHDGYESNTGSTTGSIVCGYNGWSDLPICYERECELPKIDVHLVPDRKKDQYKVGEVLKFSCKPGFTIVGPNSVQCYHFGLSPDLPICKEQVQSCGPPPELLNGNVKEKTKEEYGHSEVVEYYCNPRFLMKGPNKIQCVDGEWTTLPVCIVEESTCGDIPELEHGWAQLSSPPYYYGDSVEFNCSESFTMIGHRSITCIHGVWTQLPQCVAIDKLKKCKSSNLIILEEHLKNKKEFDHNSNIRYRCRGKEGWIHTVCINGRWDPEVNCSMAQIQLCPPPPQIPNSHNMTTTLNYRDGEKVSVLCQENYLIQEGEEITCKDGRWQSIPLCVEKIPCSQPPQIEHGTINSSRSSQESYAHGTKLSYTCEGGFRISEENETTCYMGKWSSPPQCEGLPCKSPPEISHGVVAHMSDSYQYGEEVTYKCFEGFGIDGPAIAKCLGEKWSHPPSCIKTDCLSLPSFENAIPMGEKKDVYKAGEQVTYTCATYYKMDGASNVTCINSRWTGRPTCRDTSCVNPPTVQNAYIVSRQMSKYPSGERVRYQCRSPYEMFGDEEVMCLNGNWTEPPQCKDSTGKCGPPPPIDNGDITSFPLSVYAPASSVEYQCQNLYQLEGNKRITCRNGQWSEPPKCLHPCVISREIMENYNIALRWTAKQKLYSRTGESVEFVCKRGYRLSSRSHTLRTTCWDGKLEYPTCAKR",glycan array binding signal (z-score),Fuc(a1-2)Gal,-0.396
same,glycan array binding signal (z-score),Fuc(a1-2)Gal(b1-3)GalNAc,1.03
same,glycan array binding signal (z-score),[1],3.46
same,glycan array binding signal (z-score),[2],0.586
same,glycan array binding signal (z-score),[3],0.238
same,glycan array binding signal (z-score),Fuc(a1-2)Gal(b1-3)GlcNAc,0.681
same,glycan array binding signal (z-score),[4],-0.503
same,glycan array binding signal (z-score),[5],0.167
same,glycan array binding signal (z-score),Fuc(a1-2)Gal(b1-4)Glc,0.793
same,glycan array binding signal (z-score),Fuc(a1-2)Gal(b1-4)Glc6S,-0.096
same,glycan array binding signal (z-score),Fuc(a1-2)Gal(b1-4)GlcNAc,3.15
same,glycan array binding signal (z-score),[6],0.038
same,glycan array binding signal (z-score),[7],-0.118
same,glycan array binding signal (z-score),[8],-0.485
same,glycan array binding signal (z-score),[9],0.106
same,glycan array binding signal (z-score),[10],0.26
same,glycan array binding signal (z-score),[11],-0.325
same,glycan array binding signal (z-score),Fuc(a1-2)Gal6S(b1-4)Glc,-0.566
same,glycan array binding signal (z-score),[12],0.154
same,glycan array binding signal (z-score),[13],-0.529
same,glycan array binding signal (z-score),Fuc(a1-2)[Gal(a1-3)]Gal,-0.294
same,glycan array binding signal (z-score),[14],0.366
same,glycan array binding signal (z-score),[15],-0.526
same,glycan array binding signal (z-score),[16],-0.084
same,glycan array binding signal (z-score),[17],0.224
same,glycan array binding signal (z-score),[18],-0.137
same,glycan array binding signal (z-score),[19],-0.477
same,glycan array binding signal (z-score),[20],0.354
same,glycan array binding signal (z-score),[21],-0.381
same,glycan array binding signal (z-score),[22],0.018
same,glycan array binding signal (z-score),[23],0.84
same,glycan array binding signal (z-score),[24],-0.167
same,glycan array binding signal (z-score),[25],3.61
same,glycan array binding signal (z-score),Fuc(a1-3)GlcNAc,1.15
same,glycan array binding signal (z-score),[26],-0.418
same,glycan array binding signal (z-score),[27],-0.291
same,glycan array binding signal (z-score),[28],-0.324
same,glycan array binding signal (z-score),[29],-0.455
same,glycan array binding signal (z-score),[30],0.031
same,glycan array binding signal (z-score),[31],-0.587
same,glycan array binding signal (z-score),[32],-0.434
same,glycan array binding signal (z-score),[33],0.478
same,glycan array binding signal (z-score),[34],-0.279
same,glycan array binding signal (z-score),[35],-0.232
same,glycan array binding signal (z-score),[36],-0.41
same,glycan array binding signal (z-score),[37],-0.626
same,glycan array binding signal (z-score),Fuc(a1-4)GlcNAc,0.378
same,glycan array binding signal (z-score),Fuc(b1-3)GlcNAc,0.235
same,glycan array binding signal (z-score),Gal(a1-2)Gal,0.862
same,glycan array binding signal (z-score),Gal(a1-3)Gal,1.26
same,glycan array binding signal (z-score),Gal(a1-3)Gal(b1-3)GlcNAc,0.079
same,glycan array binding signal (z-score),Gal(a1-3)Gal(b1-4)Glc,-0.299
same,glycan array binding signal (z-score),Gal(a1-3)Gal(b1-4)GlcNAc,-0.491
same,glycan array binding signal (z-score),[38],-0.583
same,glycan array binding signal (z-score),Gal(a1-3)GalNAc,-0.24
same,glycan array binding signal (z-score),[39],-0.355
same,glycan array binding signal (z-score),Gal(a1-4)Gal(b1-4)Glc,-0.426
same,glycan array binding signal (z-score),Gal(a1-4)Gal(b1-4)GlcNAc,-0.467
same,glycan array binding signal (z-score),Gal(a1-4)GlcNAc,-0.49
same,glycan array binding signal (z-score),Gal(a1-6)Glc,-0.53

# — the supplement of paper PMC8728848
